In PubChem BioAssay AID1508624 (National Center for Advancing Translational Sciences (NCATS), 2021):
The whole screen tested about 48,000 compounds, of which about 120 (0.25%) were called active. Another 4% or so got no clear call; they are omitted. The call rests on the fitted dose curve; in most records, active means well fitted activation curve with a large enough effect; inconclusive means small, poorly fitted or top-dose-only effect, or another doubt; inactive means no such curve, though single readings can be large or run the other way. The list shows a part of the results.

Assay: Primary qHTS for Identification of Small Molecule Activators of Huntingtin-Antisense Promoter Activity; further: nearly all actives have a fitted effect of over 55% in size
Conditions: HEK293 HTT-AS promoter firefly luciferase reporter, 24 h; series mostly up to 57.5 µM; activity change, positive = activation: at the top concentration
Outline: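 HEK293 luciferase promoter-reporter cells (2,500/well) plated 24 h, then compounds added at up to 57.5 uM final for 24 h at 37 °C. Firefly luminescence by Dual-Glo, normalized to vehicle (0%) and zero RLU (-100%).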

Activity change, positive = activation, inactive:
COc1cc(OC)c(NC(=O)CSC2=Nc3ccccc3N=C(c3ccc(F)cc3)C2)cc1Cl -17.5%
Cc1ccc(CNC(=O)c2cc(S(=O)(=O)N3CCCC(C)C3)cn2C)cc1 (configuration not stated) -29.3%
Cc1sc(C2C(C#N)=C(N)N(c3cccc(Cl)c3)C3=C2C(=O)CCC3)cc1CN1CCOCC1 (configuration not stated) -17.1%
O=C(CCC1N=C2c3ccccc3N=C(SCc3ccccc3Cl)N2C1=O)NCc1cccs1 (configuration not stated) -23.3%
O=C(NCc1ccccc1F)C(=O)NCC(c1cccs1)S(=O)(=O)c1cccs1 (configuration not stated) -28%
CC(C)Cc1ccc(S(=O)(=O)Nc2ccc3[nH]c(=O)[nH]c3c2)cc1 -34.2%
CCOc1ccc(OCC)c(NC(=O)c2cnc3c(-c4ccccc4)c(C)nn3c2C)c1 -4.53%
COC(=O)c1cc2oc(C)cc2n1Cc1cccc(Cl)c1 0.687%
Cc1ccc(-n2c(=O)c3c(c4cc(C)ccc4n3C)n(CC(=O)NCCC3=CCCCC3)c2=O)cc1 -11.8%
O=c1c2oc3ccccc3c2n(Cc2cccc(Cl)c2)c(=O)n1Cc1ccc2c(c1)OCO2 -27.2%
COc1ccccc1OCC(=O)NCC1(N2CCOCC2)CCCCC1 -10%
O=C(NCc1cccc(Cl)c1)c1ccc(CS(=O)Cc2ccccc2Cl)o1 (configuration not stated) -27.4%
CC(C)(C)NC(=O)Cn1cc(S(=O)(=O)Cc2ccc(F)cc2)c2ccccc21 -13.7%
CCCOc1ccc(-c2nonc2NC(=O)COc2ccc(C)cc2)cc1OCCC 10.7%
COCCn1c(SCC(=O)c2ccc(OC)cc2)nc2cc(C(=O)NC3CCCC3)ccc2c1=O 3.91%
CC(=O)c1c(C)oc2c(Cl)cc(NS(=O)(=O)c3cc(C)c(C)cc3C)cc12 14.9% [at 11.5 µM, percent change from vehicle, -100% = no light]
CCOC(=O)CNC(c1ccccc1)c1cc(Br)ccc1NC(=O)c1ccc(Cl)cc1 (configuration not stated) 5.03% [at 11.5 µM, percent change from vehicle, -100% = no light]
Cc1ccc(S(=O)(=O)c2nnn(CC(=O)Nc3ccccc3C)c2N)cc1C -9.18%
CCC(=O)Nc1ccc2nc(SCCOc3cccc(C)c3)sc2c1 -29.9%
Cc1ccn2c(=O)c(C(=O)Nc3ccc(F)c(C(F)(F)F)c3)cnc2c1 23.7%
O=C(Cn1cc(S(=O)(=O)c2ccc(F)cc2)c(=O)c2cc3c(cc21)OCO3)Nc1ccccc1 -18.7%
Cc1oc(-c2ccccc2F)nc1CN1CCC(C(=O)NCCc2ccc(Cl)cc2)CC1 -24.9%
CCOC(=O)c1cc(=O)c2c(OCC(COc3cccc4oc(C(=O)OCC)cc(=O)c34)OC(=O)[C@@H](N)CCCCN)cccc2o1 -2.85%
Cc1cccc(NC(=O)C(=O)NCC(c2cccnc2)N2CCc3ccccc32)c1C (configuration not stated) -20.7%
CCOc1ccc(-c2nonc2NC(=O)c2oc3ccc(Cl)cc3c2C)cc1 -14.9%
COc1cccc(NC(=O)c2oc3ccccc3c2NC(=O)COc2ccccc2C)c1 26.2%
COC(=O)c1ccccc1NC(=O)CCCn1nc(C)c2sc3ccccc3c2c1=O -5.31%
COc1ccc(-c2nnn3c2nc(NCc2ccccc2)c2ccccc23)cc1 18.8%
CC1=C(C(=O)Nc2ccc(C)cc2C)C(CC(C)C)n2nc(SCc3ccccc3C)nc2N1 (configuration not stated) -4.97%
O=c1oc2c(F)cc(F)cc2cc1S(=O)(=O)c1ccc(F)cc1 -58.1%
Cc1nc(C)c(CCNS(=O)(=O)c2ccc(C)c(C)c2)s1 -24.7%
CCOc1ccccc1NC(=O)c1c(NCc2ccc(C)o2)sc2c1CCCCC2 -12.1%
Cc1ccc(Cc2nc3ccccc3nc2SCC(=O)N2CCCCC2)cc1 -29.5%
CCOc1ccc(N(CC)C(=O)c2cc3c(=O)oc4ccccc4c3s2)cc1 -12.7%
CCOc1ccc(CN2CCN(S(=O)(=O)c3ccc(Cl)cc3)CC2)cc1 -5.33%
NC(=O)c1ncn([C@@H]2O[C@H](CO)[C@@H](O)[C@@H]2O)c1N 1.16%
Cn1c(CNc2ccc(C(=N)N)cc2)nc2cc(C(=O)N(CCC(=O)O)c3ccccn3)ccc21 -5.95% [at 25.1 µM, percent change from vehicle, -100% = no light]
CNC1CCCN(c2c(F)cc3c(=O)c(C(=O)O)cn(C4CC4)c3c2OC)C1 (configuration not stated)
COc1ccc(C)cc1NC(=O)c1ccc2c(c1)N(Cc1cccc(Cl)c1)C(=O)c1ccccc1S2=O (configuration not stated) -2.09%
Cc1ccc(C)c(NC(=O)c2ccc(=O)n(Cc3ccc(F)cc3)c2)c1 -35.1%
Clc1cccc(N2CCN(c3nc4ccccc4c4nc(-c5cccnc5)nn34)CC2)c1 -5.59%
CC(=O)N1c2ccc(S(=O)(=O)N3CCCCCC3)cc2CC1C(=O)NCc1cccc(F)c1 (configuration not stated) -2.4%
Cc1ccc(S(=O)(=O)c2nc(-c3cccs3)oc2SC(C)c2ccccc2)cc1 (configuration not stated) -4.3%
CCOc1ccc(CC(=O)NCCS(=O)(=O)N2CCN(c3ccccc3OC)CC2)cc1 -23.5%
CCS(=O)(=O)N1CCc2cc(C(=O)N3CCN(c4ccccc4)CC3)ccc21 -0.5%
CCCCC(=O)Nc1cc(-c2nc3ccccc3o2)ccc1OC 3.63%
CCOC(=O)c1noc2ncn(CC(=O)Nc3ccc(OC)c(Cl)c3)c(=O)c12 -7.67%
CCOc1ccc(-c2cc(C(=O)NCc3ccc(OCC)c(OC)c3)[nH]n2)cc1 -6.91%
COc1ccc(-c2ccc(NS(=O)(=O)c3ccccc3)cc2)nn1 -11.2%
O=c1c2sc3ccccc3c2n(Cc2ccc(F)cc2)c(=O)n1Cc1ccccc1 -14.1%
CCc1cccc(CC)c1NC(=O)CCS(=O)(=O)c1ccc(Br)cc1 -23.5%
Cc1cc(C)n2nc(SCC(=O)Nc3ccc(O)cc3)nc2n1 2.75%
COc1ccc2[nH]cc(CCNC(=O)Nc3c(C)cccc3C)c2c1 -3.8%
Cc1ccc(NC(=O)CSc2ncccc2C(=O)Oc2ccccc2Cl)cc1Cl 3.09%
COc1cc(C)ccc1OCCSc1nc2ccc(NC(=O)c3ccc4c(c3)OCO4)cc2s1 -37.9%
CCOC(=O)c1cc(-c2ccccc2)n(CCC(=O)Nc2ccc(OC)c(Cl)c2)c1C -32.1%
Cc1cc(NC(=O)CN(C)S(=O)(=O)c2ccc3c(c2)CCCC(=O)N3)ccc1Br -49.7%
Cc1ccccc1-c1nc2c(c(SCc3cccc(Cl)c3)n1)Cc1c(CO)cnc(C)c1O2 -10.1%
CCc1ccc(NC(=O)Cn2c(=O)n(CCCC(=O)NCc3ccccc3OC)c(=O)c3ccccc32)cc1 -16.3%
COc1cc(-c2nc(Cn3nnc(C(=O)Nc4ccccc4C)c3C)c(C)o2)cc(OC)c1OC -0.429%
CCOC(=O)CSc1nc2c([nH]c3ccccc32)c(=O)n1-c1ccc(OCC)cc1 -13.2%
Cc1ccccc1C(=O)Nc1nc2c(s1)CC(C(C)(C)C)CC2 (configuration not stated) 6.8% [at 11.5 µM, percent change from vehicle, -100% = no light]
COc1ccc(-c2c(C)c3ccc(O)c(CN4CCN(C)CC4)c3oc2=O)cc1OC -18.7%
COc1ccc2c(c1)c1c(c(=O)n(-c3cccc(Cl)c3)c(=O)n1C)n2C -8.92%
Cc1cccc2sc(N(Cc3cccnc3)C(=O)C3CCCCC3)nc12 -10.6%
COc1ccc(S(=O)(=O)c2cn(CC(=O)Nc3ccccc3)c3ccc(Cl)cc3c2=O)cc1 -12%
COc1ccc(CSc2nc3ccncc3n2Cc2nc(-c3ccc(OC)c(OC)c3)oc2C)cc1 13.3%
Cc1cccc(NC(=O)CSc2nc(=O)n(CCN3CCOCC3)c3c2CCC3)c1C -9.23%
CCCC(=O)NCc1nc2cccnc2n1Cc1ccc(F)cc1 -5.25%
Cc1cccc(Cn2nnc3c(=O)[nH]c(C4CCN(C(=O)c5ccccc5F)CC4)nc32)c1 -18.7%
C=CCN1C[C@H](C(=O)N(CCCN(C)C)C(=O)NCC)C[C@@H]2c3cccc4[nH]cc(c34)C[C@H]21 -10.7%
Cc1ccc(NC(=O)Cn2c(=O)n(Cc3ccc4c(c3)OCO4)c(=O)c3ccc(C(=O)NC4CCCCC4)cc32)cc1 -11.4%
CCOC(=O)c1ccc(NC(=O)Cc2coc3cc(C)cc(C)c23)cc1 -8.32%
CCCCc1nn2c(=O)cc(COC(=O)c3ccccc3NC(=O)C3CCCCC3)nc2s1 -0.805%
COc1ccc(S(=O)(=O)NCc2cccn2Cc2cccc(C)c2)cc1OC -14%
CCN(C(=O)CSc1nnc(C)n2c1cc1occc12)c1ccccc1 -23.4%
CCOc1ccc(NC(=O)c2cc3c(=O)n4cccc(C)c4nc3s2)cc1 2.49%
Cc1cc([N+](=O)[O-])ccc1NC(=O)CSc1nccn1C -2.84%
COc1ccc(CNC(=O)c2cnc(N3CCCC3)nc2C)cc1 -9.69%
O=C(CSc1cn(CC(=O)N2CCOCC2)c2ccccc12)Nc1ccccc1C(F)(F)F -5.76%
COc1ccc(C)cc1NC(=O)CN1C(=O)CCc2cc(S(=O)(=O)N3CCOCC3)ccc21 -11.1%
Cc1ccc(C(c2sc3nc(-c4ccco4)nn3c2O)N2CCCCC2)cc1 (configuration not stated) -1.71%
CC(=O)c1ccc(NC(=O)CSc2nc(-c3ccccc3F)nc3c2c(=O)n(C)c(=O)n3C)cc1 -5.72%
C=Cc1ccc(Cn2c(=O)n(-c3ccccc3C)c(=O)c3c4c(sc32)CN(C(C)=O)CC4)cc1 -34.9%
CCc1nn(CC(=O)Nc2c(C)cc(C)cc2C)c(=O)c2cc3sccc3n12 -14%
Cc1ccc(N(C)S(=O)(=O)c2ccc3[nH]cc(C(=O)O)c(=O)c3c2)cc1C -4.42%
CCN(Cc1ccccc1)C(=O)Nc1ccc2c(c1)N(C)C(=O)c1ccccc1S2 -19.3%
Cc1ccc(C(=O)Nc2ccc3c(c2)N(C)C(=O)c2ccccc2S3)cc1F -51.7%
CN1CCC(=C2c3ccccc3C=Cc3ccccc32)CC1
CC1Cc2cc(S(=O)(=O)NCc3ccc(F)cc3)ccc2N1C(=O)C1CCC1 (configuration not stated) -37.5%
CCOC(=O)c1c(-c2ccc(C)cc2)csc1NC(=O)c1cc(=O)c2cc(C)c(C)cc2o1 4.09%
O=C(NCc1cccs1)c1ccc(CSc2nc3ccncc3n2Cc2cccc(F)c2)cc1 -29.8%
